The list shows a part of the results.
Assays:
Test in all cases: glycan array binding signal (z-score within array); higher = stronger binding
Conditions in all cases: glycan notation: IUPAC condensed, linker removed
[1] = target: Fuc(a1-2)Gal6S(b1-3)GlcNAc
Outline: (§1)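 Negative Z-scores can be read as non-binding. The Z-score is calculated within each array and then averaged across arrays of one protein sequence at different concentrations or buffers and across linkers. Arrays, 3228 in all, were curated from the Consortium for Functional Glycomics database and kept only where the protein sequence was available.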

[2] = target: Fuc(a1-2)Gal6S(b1-3)GlcNAc6S
Outline: as §1

Fuc(a1-2)Gal6S(b1-4)Glc = target: Fuc(a1-2)Gal6S(b1-4)Glc
Outline: as §1

[3] = target: Fuc(a1-2)Gal6S(b1-4)Glc6S
Outline: as §1

Fuc(a1-2)[Gal(a1-3)]Gal = target: Fuc(a1-2)[Gal(a1-3)]Gal
Outline: as §1

[4] = target: Fuc(a1-2)[Gal(a1-3)]Gal(b1-3)GalNAc
Outline: as §1

[5] = target: Fuc(a1-2)[Gal(a1-3)]Gal(b1-3)GalNAc(b1-3)Gal(a1-4)Gal(b1-4)Glc
Outline: as §1

[6] = target: Fuc(a1-2)[Gal(a1-3)]Gal(b1-3)GlcNAc
Outline: as §1

[7] = target: Fuc(a1-2)[Gal(a1-3)]Gal(b1-3)GlcNAc(b1-2)Man(a1-3)[Fuc(a1-2)[Gal(a1-3)]Gal(b1-3)GlcNAc(b1-2)Man(a1-6)]Man(b1-4)GlcNAc(b1-4)GlcNAc
Outline: as §1

[8] = target: Fuc(a1-2)[Gal(a1-3)]Gal(b1-3)GlcNAc(b1-2)Man(a1-3)[Fuc(a1-2)[Gal(a1-3)]Gal(b1-3)GlcNAc(b1-2)Man(a1-6)]Man(b1-4)GlcNAc(b1-4)[Fuc(a1-6)]GlcNAc
Outline: as §1

[9] = target: Fuc(a1-2)[Gal(a1-3)]Gal(b1-3)GlcNAc(b1-3)GalNAc
Outline: as §1

[10] = target: Fuc(a1-2)[Gal(a1-3)]Gal(b1-3)GlcNAc(b1-6)GalNAc
Outline: as §1

[11] = target: Fuc(a1-2)[Gal(a1-3)]Gal(b1-4)Glc
Outline: as §1

[12] = target: Fuc(a1-2)[Gal(a1-3)]Gal(b1-4)GlcNAc
Outline: as §1

[13] = target: Fuc(a1-2)[Gal(a1-3)]Gal(b1-4)GlcNAc(b1-2)Man
Outline: as §1

[14] = target: Fuc(a1-2)[Gal(a1-3)]Gal(b1-4)GlcNAc(b1-2)Man(a1-3)[Fuc(a1-2)[Gal(a1-3)]Gal(b1-4)GlcNAc(b1-2)Man(a1-6)]Man(b1-4)GlcNAc(b1-4)GlcNAc
Outline: as §1

[15] = target: Fuc(a1-2)[Gal(a1-3)]Gal(b1-4)GlcNAc(b1-2)Man(a1-3)[Fuc(a1-2)[Gal(a1-3)]Gal(b1-4)GlcNAc(b1-2)Man(a1-6)]Man(b1-4)GlcNAc(b1-4)[Fuc(a1-6)]GlcNAc
Outline: as §1

[16] = target: Fuc(a1-2)[Gal(a1-3)]Gal(b1-4)GlcNAc(b1-3)GalNAc
Outline: as §1

[17] = target: Fuc(a1-2)[Gal(a1-3)]Gal(b1-4)GlcNAc(b1-3)[Fuc(a1-2)[Gal(a1-3)]Gal(b1-4)GlcNAc(b1-6)]GalNAc
Outline: as §1

[18] = target: Fuc(a1-2)[Gal(a1-3)]Gal(b1-4)GlcNAc(b1-6)GalNAc
Outline: as §1

[19] = target: Fuc(a1-2)[Gal(a1-3)]Gal(b1-4)[Fuc(a1-3)]Glc
Outline: as §1

[20] = target: Fuc(a1-2)[Gal(a1-3)]Gal(b1-4)[Fuc(a1-3)]GlcNAc
Outline: as §1

[21] = target: Fuc(a1-2)[Gal(a1-3)]Gal(b1-4)[Fuc(a1-3)]GlcNAc(b1-3)GalNAc
Outline: as §1

[22] = target: Fuc(a1-2)[Gal(a1-4)]Gal(b1-4)GlcNAc
Outline: as §1

[23] = target: Fuc(a1-2)[GalNAc(a1-3)]Gal
Outline: as §1

[24] = target: Fuc(a1-2)[GalNAc(a1-3)]Gal(b1-3)GalNAc(a1-3)[Fuc(a1-2)]Gal(b1-4)GlcNAc
Outline: as §1

[25] = target: Fuc(a1-2)[GalNAc(a1-3)]Gal(b1-3)GalNAc(b1-3)Gal(a1-4)Gal(b1-4)Glc
Outline: as §1

[26] = target: Fuc(a1-2)[GalNAc(a1-3)]Gal(b1-3)GlcNAc
Outline: as §1

[27] = target: Fuc(a1-2)[GalNAc(a1-3)]Gal(b1-3)GlcNAc(b1-2)Man(a1-3)[Fuc(a1-2)[GalNAc(a1-3)]Gal(b1-3)GlcNAc(b1-2)Man(a1-6)]Man(b1-4)GlcNAc(b1-4)GlcNAc
Outline: as §1

[28] = target: Fuc(a1-2)[GalNAc(a1-3)]Gal(b1-3)GlcNAc(b1-2)Man(a1-3)[Fuc(a1-2)[GalNAc(a1-3)]Gal(b1-3)GlcNAc(b1-2)Man(a1-6)]Man(b1-4)GlcNAc(b1-4)[Fuc(a1-6)]GlcNAc
Outline: as §1

[29] = target: Fuc(a1-2)[GalNAc(a1-3)]Gal(b1-3)GlcNAc(b1-3)GalNAc
Outline: as §1

[30] = target: Fuc(a1-2)[GalNAc(a1-3)]Gal(b1-3)GlcNAc(b1-6)GalNAc
Outline: as §1

[31] = target: Fuc(a1-2)[GalNAc(a1-3)]Gal(b1-4)Glc
Outline: as §1

[32] = target: Fuc(a1-2)[GalNAc(a1-3)]Gal(b1-4)GlcNAc
Outline: as §1

[33] = target: Fuc(a1-2)[GalNAc(a1-3)]Gal(b1-4)GlcNAc(b1-2)Man
Outline: as §1

[34] = target: Fuc(a1-2)[GalNAc(a1-3)]Gal(b1-4)GlcNAc(b1-2)Man(a1-3)[Fuc(a1-2)[GalNAc(a1-3)]Gal(b1-4)GlcNAc(b1-2)Man(a1-6)]Man(b1-4)GlcNAc(b1-4)GlcNAc
Outline: as §1

[35] = target: Fuc(a1-2)[GalNAc(a1-3)]Gal(b1-4)GlcNAc(b1-2)Man(a1-3)[Fuc(a1-2)[GalNAc(a1-3)]Gal(b1-4)GlcNAc(b1-2)Man(a1-6)]Man(b1-4)GlcNAc(b1-4)[Fuc(a1-6)]GlcNAc
Outline: as §1

[36] = target: Fuc(a1-2)[GalNAc(a1-3)]Gal(b1-4)GlcNAc(b1-3)Gal(b1-4)GlcNAc
Outline: as §1

[37] = target: Fuc(a1-2)[GalNAc(a1-3)]Gal(b1-4)GlcNAc(b1-3)Gal(b1-4)GlcNAc(b1-3)Gal(b1-4)GlcNAc
Outline: as §1

[38] = target: Fuc(a1-2)[GalNAc(a1-3)]Gal(b1-4)GlcNAc(b1-3)GalNAc
Outline: as §1

[39] = target: Fuc(a1-2)[GalNAc(a1-3)]Gal(b1-4)GlcNAc(b1-3)[Fuc(a1-2)[GalNAc(a1-3)]Gal(b1-4)GlcNAc(b1-6)]GalNAc
Outline: as §1

[40] = target: Fuc(a1-2)[GalNAc(a1-3)]Gal(b1-4)GlcNAc(b1-6)GalNAc
Outline: as §1

[41] = target: Fuc(a1-2)[GalNAc(a1-3)]Gal(b1-4)[Fuc(a1-3)]GlcNAc
Outline: as §1

[42] = target: Fuc(a1-2)[GalNAc(a1-3)]Gal(b1-4)[Fuc(a1-3)]GlcNAc(b1-3)GalNAc
Outline: as §1

[43] = target: Fuc(a1-2)[GalNAc(a1-4)]Gal(b1-4)GlcNAc
Outline: as §1

B1: HML-Native (Hypnea musciformis), P84871 (protein)
chain: QKFCTLDIAPVCCQIVIGGGMYTAGNACMCEGFVSGVGRCENPKECPCTREAQIPSCCSSRWGLVSVTGKCACDCLGGTVAFPEPCPSPY
[1]
  glycan array binding signal (z-score): -0.268
[2]
  glycan array binding signal (z-score): -0.206
Fuc(a1-2)Gal6S(b1-4)Glc
  glycan array binding signal (z-score): -0.213
[3]
  glycan array binding signal (z-score): -0.204
Fuc(a1-2)[Gal(a1-3)]Gal
  glycan array binding signal (z-score): -0.217
[4]
  glycan array binding signal (z-score): -0.241
[5]
  glycan array binding signal (z-score): -0.275
[6]
  glycan array binding signal (z-score): -0.211
[7]
  glycan array binding signal (z-score): -0.101
[8]
  glycan array binding signal (z-score): 3.02
[9]
  glycan array binding signal (z-score): -0.281
[10]
  glycan array binding signal (z-score): -0.319
[11]
  glycan array binding signal (z-score): -0.106
[12]
  glycan array binding signal (z-score): -0.348
[13]
  glycan array binding signal (z-score): -0.154
[14]
  glycan array binding signal (z-score): 0.081
[15]
  glycan array binding signal (z-score): 1.64
[16]
  glycan array binding signal (z-score): -0.271
[17]
  glycan array binding signal (z-score): -0.238
[18]
  glycan array binding signal (z-score): -0.289
[19]
  glycan array binding signal (z-score): -0.283
[20]
  glycan array binding signal (z-score): -0.17
[21]
  glycan array binding signal (z-score): -0.308
[22]
  glycan array binding signal (z-score): -0.257
[23]
  glycan array binding signal (z-score): -0.275
[24]
  glycan array binding signal (z-score): -0.327
[25]
  glycan array binding signal (z-score): -0.448
[26]
  glycan array binding signal (z-score): -0.249
[27]
  glycan array binding signal (z-score): -0.093
[28]
  glycan array binding signal (z-score): 1.61
[29]
  glycan array binding signal (z-score): -0.072
[30]
  glycan array binding signal (z-score): -0.215
[31]
  glycan array binding signal (z-score): -0.137
[32]
  glycan array binding signal (z-score): -0.162
[33]
  glycan array binding signal (z-score): -0.344
[34]
  glycan array binding signal (z-score): -0.193
[35]
  glycan array binding signal (z-score): 1.42
[36]
  glycan array binding signal (z-score): -0.272
[37]
  glycan array binding signal (z-score): -0.092
[38]
  glycan array binding signal (z-score): -0.302
[39]
  glycan array binding signal (z-score): -0.305
[40]
  glycan array binding signal (z-score): -0.288
[41]
  glycan array binding signal (z-score): -0.275
[42]
  glycan array binding signal (z-score): -0.211
[43]
  glycan array binding signal (z-score): -0.162
